Columns and labels:
[1] = test system: Pseudomonas aeruginosa ATCC9027; test: Paper disc test with water or propylene glycol, Example 10; design: key: NZ: no accompanying zone of inhibition; CZ: clear zone of inhibition surrounding the sample and zone measured in millimeters (mm)
Text: (§1) PCA or 246 THBA were combined with propylene glycol (PPG). The PPG was placed on a paper disc and then either PCA or 246 THBA was applied. The paper disc was then placed on colonies of various bacterial in a Petri dish. At a certain uniform time they were inspected and classified in the following categories: • NI: no inhibition of bacteria growth under the sample • I: inhibition of bacterial growth under the sample • NZ: no accompanying zone of inhibition • CZ: clear zone of inhibition surrounding the sample and zone measured in millimeters (mm).

[2] = test system: Staphylococcus aureus ATCC33591 (MRSA); test: as above; design: key: NZ: no accompanying zone of inhibition; CZ: clear zone of inhibition surrounding the sample and zone measured in millimeters (mm)
Text: as §1

Measured: zone of inhibition, class

O=Cc1c(O)cc(O)cc1O [2, 4, 6 Trihydroxybenzaldehyde, 2, 4, 6 trihydroxybenzaldehyde]
CZ: [1]; PPG | [1]; Water | [2]; PPG | [2]; Water

O=C(O)c1ccc(O)c(O)c1 [PCA, Protocatechuic acid]
CZ: [1]; PPG | [1]; Water

Source: patent US20200222347A1, “ANTIMICROBIALS AND METHODS OF USE THEREOF” (priority 2013, published 2020)
